# Results taken from PubChem BioAssay AID540317 (National Center for Advancing Translational Sciences (NCATS), 2011).
# The campaign covered roughly 390,000 compounds. About 2,200 (0.56%) were called active. This list was built around the results that the source calls inconclusive (neither active nor inactive); the mix of calls is not that of the screen. Calls come from the whole dose curve; as a rule, active = well fitted inhibition curve with a large enough effect; inconclusive = small, poorly fitted or top-dose-only effect; inactive = no such curve, though single readings can be large or run the other way. Potencies beside an inconclusive call are fits to weak or partial responses and may not hold up.
# Target: Chromobox protein homolog 1 (Homo sapiens) (UniProt P83916)
# UniProt P83916, sequence (P83916 whole entry, looked up): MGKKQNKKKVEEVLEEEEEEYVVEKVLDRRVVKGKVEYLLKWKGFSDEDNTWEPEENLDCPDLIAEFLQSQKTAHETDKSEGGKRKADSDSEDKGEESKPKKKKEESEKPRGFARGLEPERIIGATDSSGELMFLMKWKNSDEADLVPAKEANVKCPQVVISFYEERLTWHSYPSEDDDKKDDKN
# Test: HTS for Inhibitors of HP1-beta Chromodomain Interactions with Methylated Histone Tails; note: nearly all actives have a fitted effect of over 70% in size
# Details: AlphaScreen HP1-beta / biotin-H3K9me3 peptide binding; series mostly up to 114 µM
# Procedure, shortened: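 AlphaScreen: HP1-beta (50 nM) preformed 30 min with biotin-H3(1-18)K9me3 peptide (50 nM) in PBS pH 7.4, 0.01% Tween-20. Compound added for 30 min at RT, then streptavidin donor/nickel chelate acceptor beads (10 ug/mL) for 30 min.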
# Potency is the fitted concentration of half-maximal effect; tags give direction and shape of the fitted curve.
row,SMILES,Potency
1,CN(CCOc1cccc2ccccc12)Cc1ccccc1,"inconclusive: 12.6 µM [inhibitor, partial curve, poor fit]"
2,O=C(CCCN1C(=O)/C(=C/c2cccs2)SC1=S)Nc1ccccn1,"inconclusive: 14.1 µM [inhibitor, full curve]"
3,O=C(CCCc1nc2ccccc2s1)NNC(=O)CCN1CCN(Cc2ccccc2)CC1,inactive
4,Cc1ccc(Nc2c(-c3ccccn3)nc3cc(C)ccn23)cc1,"inconclusive: 31.6 µM [inhibitor, partial curve, poor fit]"
5,Oc1cccc(C=Nc2cccc3ccccc23)c1O,"inconclusive: 35.5 µM [inhibitor, partial curve]"
6,CCN1CCN(C(=O)C2CCN(Cc3cc(Cl)ccc3O)CC2)CC1,"inconclusive: 89.1 µM [inhibitor, single point]"
7,CCOc1ccc(/C=C/C2=Cc3c(sc(NC(=O)CSc4n[nH]c(N)n4)c3C#N)C(C)(C)C2)cc1,inactive
8,COc1cccc(NC(=S)NN=C2CCC(C(C)(C)C)CC2)c1 (configuration not stated),"inconclusive: 44.7 µM [inhibitor, partial curve]"
9,CCOC(=O)C1=C(CS(=O)(=O)c2ccccc2)NC(=O)NC1c1cc(OC)c(O)c(OC)c1 (configuration not stated),inactive
10,COc1ccc(NC(=S)NC(NC(=O)c2ccc(Cl)cc2Cl)C(Cl)(Cl)Cl)c([N+](=O)[O-])c1 (configuration not stated),"inconclusive: 39.8 µM [inhibitor, single point]"
11,Cc1cc(C)c(S(=O)(=O)NCC(c2ccc(N(C)C)cc2)N2CCOCC2)c(C)c1 (configuration not stated),"inconclusive: 50.1 µM [inhibitor, partial curve]"
12,Cc1nc(C/C(=N\Nc2ccccc2)c2ccc(O)cc2O)cs1,"inconclusive: 50.1 µM [inhibitor, partial curve]"
13,Cc1cccc(-c2nc3c4ccccc4nc(NCCc4ccccc4)n3n2)c1,inactive
14,COc1cccc(CNc2ccc3[nH]c(=O)[nH]c3c2)c1OCc1ccccc1,"inconclusive: 56.2 µM [inhibitor, single point]"
15,O=c1c(NCc2cccs2)nccn1-c1ccc(F)cc1,inactive
16,CCOc1ccccc1NS(=O)(=O)c1ccc2c(c1)oc(=O)n2C,inactive
17,CCN1CCN(c2ccc(S(=O)(=O)N3CCCCC3)cc2NC(=O)c2ccc([N+](=O)[O-])s2)CC1,"inconclusive: 56.2 µM [inhibitor, partial curve, poor fit]"
18,O=C(CCSCc1ccccc1Cl)NCc1ccc(F)cc1Cl,inactive
19,Cc1ccc2c(CC(=O)OC(C)C(=O)NCc3ccc4c(c3)OCO4)coc2c1 (configuration not stated),"inconclusive: 35.5 µM [inhibitor, partial curve]"
20,CCCCc1ccc(C2C3=C(CC(C)(C)CC3=O)NC3=C2C(=O)c2ccccc23)cc1 (configuration not stated),"inconclusive: 35.5 µM [inhibitor, partial curve]"
21,CC(=O)Nc1ccc(S(=O)(=O)N2CCc3ccccc3C2CC(=O)O)cc1 (configuration not stated),inactive
22,CC(=O)NC1=NN(C(C)=O)C2(S1)C(=O)N(C(C)=O)c1ccc(C)cc12 (configuration not stated),inactive
23,CCN=c1scc(-c2ccco2)n1/N=C/c1ccc(OC)c(O)c1,"inconclusive: 25.1 µM [inhibitor, partial curve, poor fit]"

row,SMILES,Potency
1,Cc1ccc(OCCCCn2ccnc2)c(Cl)c1,inactive
2,CC(=O)Nc1ccc(Nc2c([N+](=O)[O-])c(=O)n(-c3ccccc3)c3ccccc23)cc1,inactive
3,Cc1ccc(S(=O)(=O)N(C)CC(=O)OCC(=O)NC(=O)Nc2ccc3c(c2)OCCO3)cc1,"inconclusive: 22.4 µM [inhibitor, single point]"
4,COc1ccccc1/C=C/C=N/NC(=O)c1cc(-c2ccco2)[nH]n1,"inconclusive: 28.2 µM [inhibitor, full curve]"
5,CSc1ncccc1C(=O)OCC(=O)c1ccc(Br)s1,"inconclusive: 3.98 µM [inhibitor, partial curve, poor fit]"
6,Cc1cccc(CN(CC(=O)N/N=C/c2ccco2)S(=O)(=O)c2ccc(Cl)cc2)c1,"inconclusive: 79.4 µM [inhibitor, partial curve, poor fit]"
7,COc1ccc(-c2csc(=Nc3ccccc3)n2CCO)cc1F,"inconclusive: 15.8 µM [inhibitor, full curve]"
8,Cc1ccc(CNC(=O)CN(C(=O)C2(C)CC(=O)N=C3C=CC=CN32)c2ccccc2)cc1 (configuration not stated),inactive
9,CC1CN(CCOc2ccccc2[N+](=O)[O-])CC(C)O1 (configuration not stated),"inconclusive: 44.7 µM [inhibitor, partial curve]"
10,N#C/C(=N\Nc1ccc(S(=O)(=O)N2CCOCC2)cc1)C(N)=S,"inconclusive: 35.5 µM [inhibitor, partial curve]"
11,COc1ccccc1C1OC(c2cccc([N+](=O)[O-])c2)=NN1C(C)=O (configuration not stated),"inconclusive: 70.8 µM [inhibitor, partial curve, poor fit]"
12,O=C(O)C(c1ccccc1)C(c1ccccc1)c1ccccc1 (configuration not stated),inactive
13,CCCS(=O)(=O)N1CCN(CC2CC3C=CC2C3)CC1 (configuration not stated),"inconclusive: 15.8 µM [inhibitor, partial curve]"
14,O=[N+]([O-])c1ccccc1/C=C/CN1CCN(Cc2ccc3c(c2)OCO3)CC1,"inconclusive: 15.8 µM [inhibitor, full curve]"
15,COc1cc(/C=N/NC(=O)CCc2n[nH]c(=O)[nH]c2=O)cc(OC)c1OC,"inconclusive: 28.2 µM [inhibitor, single point]"
16,CCOc1ccccc1CNc1ccc(O)cc1,"inconclusive: 56.2 µM [inhibitor, single point]"
17,CCOC(=O)CSc1nc(N)c(C(=O)Nc2ccc(N(C)C)cc2)s1,"inconclusive: 15.8 µM [inhibitor, full curve, poor fit]"
18,CN(C)N=Nc1ccc2nc[nH]c2c1,"inconclusive: 15.8 µM [inhibitor, full curve]"
19,O=C(Nc1ccccc1C(=O)NC(Cc1ccccc1)C(=O)NC1CCCCCC1)c1ccccc1 (configuration not stated),inactive
20,COc1cc(CN2CCN(Cc3ccc([N+](=O)[O-])cc3)CC2)c([N+](=O)[O-])cc1OC,"inconclusive: 14.1 µM [inhibitor, full curve, poor fit]"
21,C=CCOc1ccccc1CNCc1ccc(F)cc1,inactive
22,COc1ccccc1N1CCN(C2CCCN(C(=O)c3cccc(-c4ccco4)c3)C2)CC1 (configuration not stated),"inconclusive: 50.1 µM [inhibitor, partial curve, poor fit]"
23,N#CC1(Nc2ccc3ccccc3c2)CCCC1,"inconclusive: 89.1 µM [inhibitor, single point]"

row,SMILES,Potency
1,COc1cccc(C(=O)NCCS(=O)(=O)N(C)Cc2ccccc2)c1,inactive
2,O=C(O)c1cccc(-c2ccc(/C=N/Nc3nn[nH]n3)o2)c1,inactive
3,CC1CC(C)CN(CC(=O)N2c3ccccc3CCc3ccccc32)C1 (configuration not stated),"inconclusive: 17.8 µM [inhibitor, full curve]"
4,CC(C)c1ccccc1NC(=O)CNCCc1ccc(C(F)(F)F)cc1,"inconclusive: 14.1 µM [inhibitor, partial curve, poor fit]"
5,Cc1ccc(S(=O)(=O)N2CCc3c2cc([N+](=O)[O-])cc3[N+](=O)[O-])cc1,"inconclusive: 10 µM [inhibitor, full curve]"
6,COc1ccc(CN(C)CC(=O)Nc2ccccc2C(F)(F)F)c(OC)c1,"inconclusive: 7.94 µM [inhibitor, partial curve, poor fit]"
7,CCOc1ccc(S(=O)(=O)NCCc2c(C)[nH]c3c(Cl)cccc23)cc1C,inactive
8,C/C(=N\N1CCN(C2c3ccccc3-c3ccccc32)CC1)c1ccncc1,"inconclusive: 20 µM [inhibitor, full curve, poor fit]"
9,CCOc1ccc2nc(N(CCN(C)C)C(=O)c3cc4ccccc4cc3OC)sc2c1,"inconclusive: 20 µM [inhibitor, partial curve, poor fit]"
10,CC/C(=N\NC(=S)Nc1cccc(C)c1)c1ccccc1,"inconclusive: 22.4 µM [inhibitor, single point]"
11,Cc1ccc(S(=O)(=O)NCCOC(=O)Nc2sc(=S)n(C)c2C)cc1,"inconclusive: 25.1 µM [inhibitor, full curve]"
12,COC(=O)N/N=C/c1cn(CCCOc2ccc(C)cc2)c2ccccc12,"inconclusive: 70.8 µM [inhibitor, partial curve]"
13,CSc1nc2c(sc3ccccc32)c(=O)n1Cc1ccc(C)cc1,inactive
14,CCOc1ccc(C(CC(=O)O)NC(=O)C(c2ccccc2)c2ccccc2)cc1OC (configuration not stated),inactive
15,NCCCC[C@@H]1NC(=O)[C@H](CCC(=O)O)NC(=O)c2cc([N+](=O)[O-])cc(I)c2SC[C@@H](C(=O)NCC(N)=O)NC1=O,inactive
16,Cc1[nH]ccc(=O)c1OCc1c(Cl)cccc1Cl,inactive
17,CCOc1ccc2[nH]c(=O)c(CN(Cc3ccco3)Cc3nnnn3Cc3ccccc3)cc2c1,inactive
18,Cc1cn([C@H](C(=O)NCCCCCCCCCCC(=O)N2CCNCC2)[C@@H](C)O)nn1,"inconclusive: 39.8 µM [inhibitor, single point]"
19,Cc1ccc(NC2=C(N3CCCCC3)C(=O)c3ccccc3C2=O)cc1,"inconclusive: 3.98 µM [inhibitor, full curve, poor fit]"
20,CCOC(=O)c1c(-c2ccccc2)csc1NC(=O)c1cc(S(=O)(=O)N2CCOCC2)ccc1C,"inconclusive: 7.08 µM [inhibitor, full curve, poor fit]"
21,C/C(=N\Nc1cccc(C(F)(F)F)c1)c1ccc(O)cc1,"inconclusive: 89.1 µM [inhibitor, single point]"
